Laboratory results from PubChem BioAssay AID2112 (National Center for Advancing Translational Sciences (NCATS), 2009).
The campaign covered roughly 240,000 compounds. About 15 (0.006%) were called active. The inconclusive results got no clear call from the source; some entries with a clear call stand among them for comparison. Calls follow the shape of the dose curve; as a rule, active = well fitted inhibition curve with a large enough effect; inconclusive = small, poorly fitted or top-dose-only effect, or effect the other way, or another doubt; inactive = no such curve, though single readings can be large or run the other way. No potency is given beside an inconclusive call; the fits are too rough.
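For activity change, negative = inhibition in this document: 0% = enzyme with vehicle and -100% = no enzyme basal signal.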
Potency is read from the fitted curve at half-maximal effect; tags tell the direction and shape of the fitted curve.

What follows are compounds tested against Lysosomal alpha-glucosidase (Homo sapiens) (UniProt P10253) (assay: qHTS Assay for Inhibitors and Activators of Human alpha-Glucosidase From Spleen Homogenate). Conditions: 4-MU-alpha-glucoside fluorescence; series mostly up to 79.9 µM.
Procedure, shortened: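 Human spleen homogenate (1 ug) incubated with compounds and 1 mM 4-methylumbelliferyl-alpha-D-glucopyranoside in pH 5.0 citrate/phosphate buffer, 37 C, 40 min. Stopped at pH 10; 4-MU fluorescence (Ex 365/Em 440 nm); AC50 by Hill fit.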
With `CCn1c(=N)c(C(=O)NCCCOC)cc2c(=O)n3cccc(C)c3nc21` the Potency was inconclusive [activator, partial curve].
In the case of `Cc1ccc(C(=O)NCCn2c(N)c(C#N)c3nc4ccccc4nc32)cc1`, the Potency is reported as inconclusive [activator, partial curve].
For `O=C(CSc1nnc(-c2cccnc2)o1)OC1CCCCC1`, the Potency was inconclusive [inhibitor, single point].
With `COc1ccc2c(c1OC)C(=O)O[C@H]2C1c2c(cc3c(c2OC)OCO3)CCN1C` (stereo partly drawn) the Potency was “inactive”.
In the case of `COC(=O)c1ccccc1NC(=O)c1c(O)c2c([nH]c1=O)CCCC2`, the Potency is reported as inconclusive [inhibitor, single point].
`Cc1ccc(S(=O)(=O)N(CC(=O)Nc2cccc([N+](=O)[O-])c2)Cc2ccc(Cl)cc2)cc1` was tested, and the Potency was “inactive”.
In the case of `NC(=O)c1cc2ccc(O)cc2oc1=NCc1ccccc1`, the Potency is reported as inconclusive [activator, partial curve].
For `Nc1c(C(O)(C(F)(F)F)C(F)(F)F)ccc2ccccc12`, the Potency was inconclusive [activator, partial curve].
`Fc1cccc(NC(=S)NCc2cccnc2)c1` was tested, and the Potency was inconclusive [inhibitor, single point].
With `COC(=O)C/C=C\[C@@H](C)[C@@H](/C=N\O[C@@H](C)c1cn([C@H]2COC[C@H]2O)nn1)NS(=O)(=O)c1ccc(C)cc1` the activity change, negative = inhibition was inactive: 2.51% [at 17.4 µM].
For `Cc1ccc(S(=O)(=O)Nc2cccc3ccc[n+](C)c23)cc1`, the Potency was “inactive”.
`O=C(N/N=C1/C[C@@H](O)[C@@H](O)[C@@H]2[C@@H]3C(=O)N(Cc4ccccc4)C(=O)[C@H]3CC[C@H]12)OCc1ccccc1` was tested, and the activity change, negative = inhibition was inactive: -6.7% [at 17.4 µM].
With `Cc1cccc2sc(NNC(=O)c3ccc(S(=O)(=O)N4CC(C)CC(C)C4)cc3)nc12` (stereo not drawn) the Potency was “inactive”.
With `COC(=O)C1=CN(Cc2ccc(OC)cc2)C=C(C(=O)OC)C1c1ccsc1` the Potency was inconclusive [activator, single point].
In the case of `COC(=O)Cc1c(C)c2cc(Cl)c(OC(=O)c3ccco3)cc2oc1=O`, the Potency is reported as inconclusive [activator, partial curve].
`CCOC(=O)c1cc2ccc(OC(=O)c3ccco3)cc2oc1=O` was tested, and the Potency was inconclusive [activator, partial curve].
For `Cc1nc(SCC(=O)c2cccs2)c2oc3ccccc3c2n1`, the Potency was inconclusive [inhibitor, full curve, poor fit].
For `CC(C)(C)OC(=O)NC(NC(=O)OCC1c2ccccc2-c2ccccc21)C(=O)O` (stereo not drawn), the Potency was “inactive”.
In the case of `O=C(c1nc2nc(-c3ccccc3)cc(C(F)(F)F)n2n1)N1CCOCC1`, the Potency is reported as inconclusive [inhibitor, partial curve].
For `CCC(=NCCc1ccccc1)c1c(O)[nH]c(=O)[nH]c1=O`, the Potency was “inactive”.
With `CCOc1cc(/C=C2/C(=O)ON=C2C)ccc1OCc1ccccc1` the Potency was “inactive”.
For `CCC1Cc2cc(O)ccc2C2=C1c1ccc(O)cc1CC2CC` (stereo not drawn), the Potency was inconclusive [activator, partial curve].
In the case of `Cc1cccc(C2=NN(c3ccccc3)[C@H](CO)[C@H]2c2ccc(Cl)cc2)c1`, the Potency is reported as inconclusive [activator, partial curve].
`Cc1ccc2nc3c(cc(C(=O)NCCCn4ccnc4)n3C)c(=O)n2c1` was tested, and the Potency was inconclusive [activator, single point].
For `Cc1cc(=O)oc2c(CN(C)Cc3ccccc3)c(O)ccc12`, the Potency was inconclusive [activator, partial curve].
In the case of `CCCCC(=O)NNC(=S)NC(=O)c1ccc(C)cc1`, the Potency is reported as “inactive”.
`COc1cccc(C(=O)CC2c3c(c(Br)c4c(c3OC)OCO4)CCN2C)c1` (stereo not drawn) was tested, and the Potency was “inactive”.
With `O=c1c(O[C@@H]2O[C@H](CO)[C@H](O)[C@H](O)[C@H]2O)c(-c2ccc(O)c(O)c2)oc2cc(O)cc(O)c12` the Potency was inconclusive [inhibitor, single point].
For `O=C(O)CN1C(=O)C2C3CC(C2C1=O)C1C(c2ccccc2)c2sc(=O)[nH]c2SC31` (stereo not drawn), the Potency was “inactive”.
For `NC(N)=Nc1nc2ccc(Cl)cc2c(=O)[nH]1`, the Potency was “inactive”.
For `S=C(c1ccc(-c2ccc(Br)cc2)o1)N1CCOCC1`, the Potency was “inactive”.
For `CCn1c(=N)c(C(=O)NC)cc2c(=O)n3cccc(C)c3nc21`, the Potency was inconclusive [activator, single point].
`COc1ccc(F)cc1S(=O)(=O)Nc1ccc2c(c1)OCO2` was tested, and the Potency was inconclusive [inhibitor, single point].
`Cc1ccc(S(=O)(=O)N2CCN(CC(=O)N/N=C\c3ccc(Cl)c([N+](=O)[O-])c3)CC2)cc1` was tested, and the Potency was inconclusive [inhibitor, single point].
In the case of `Cc1c(Cc2ccccc2)c(=O)oc2c(CN(C)C)c(O)c(Cl)cc12`, the Potency is reported as inconclusive [activator, partial curve].
`C[C@@H](c1ccccc1)N1C(=O)[C@H]2[C@H]3[C@H](O)[C@H](O)C/C(=N/OCc4ccccc4)[C@@H]3CC[C@@H]2C1=O` was tested, and the activity change, negative = inhibition was inactive: 2.04% [at 17.4 µM].
In the case of `Cc1sc2ncnc(OCC(=O)N3CCN(S(=O)(=O)c4ccccc4)CC3)c2c1C`, the Potency is reported as inconclusive [inhibitor, partial curve].
With `CC(C)CCOC(=O)c1c(N)n(CC2CCCO2)c2nc3ccccc3nc12` (stereo not drawn) the Potency was inconclusive [activator, partial curve].
With `CCOc1ccc2c(c1)-c1c(ssc1=S)C(C)(C)N2` the Potency was inconclusive [inhibitor, full curve, poor fit].
`CCn1c(=N)c(C(=O)OC)cc2c(=O)n3ccccc3nc21` was tested, and the Potency was inconclusive [activator, single point].
With `CCc1cc2c(=O)c(Oc3ccccc3F)c(C)oc2c(CN(C)C)c1O` the Potency was inconclusive [activator, single point].
With `N#CCCn1c(=O)cnc2cnc(N3CCNCC3)nc21` the Potency was “inactive”.
In the case of `O=C(O)c1cc(-c2cccs2)nc2cc3c(cc12)OCCO3`, the Potency is reported as inconclusive [activator, partial curve].
